Reference: PubChem BioAssay AID1347071 (National Center for Advancing Translational Sciences (NCATS), 2019)
Among all 410,000 compounds or so, about 260 (0.063%) were called active. This list was built around the results that the source calls inconclusive (neither active nor inactive); the mix of calls is not that of the screen. Calls follow the shape of the dose curve; as a rule, active = well fitted activation curve with a large enough effect; inconclusive = small, poorly fitted or top-dose-only effect; inactive = no such curve, though single readings can be large or run the other way. No potency is given beside an inconclusive call; the fits are too rough.

Test: qHTS for compounds that reverse cellular toxicity of Amyloid beta (A-beta) peptide in yeast: Primary Screen; also: nearly all actives have a fitted effect of over 55% in size
Conditions: yeast expressing A-beta42, growth rescue, OD600, 48 h; growth rescue: at 46.1 µM (top of the series), 0% DMSO, 100% iron-clioquinol control
Outline: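 Growth rescue measured by 600 nm absorbance after 48 h yeast culture at 30 C with compound. Values normalized between DMSO and an equimolar ferric chloride plus clioquinol control.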
Potency is read from the fitted curve at half-maximal effect; tags tell the direction and shape of the fitted curve.

Row | Structure (SMILES) | Potency | growth rescue
1 | CC1Cc2ccccc2N1C(=O)C(C)n1cc(C(F)(F)F)cc(Cl)c1=O (configuration not stated) | inconclusive [activator, partial curve, poor fit] | 
2 | CC1CCCN(CC(=O)N2c3ccccc3Sc3ccccc32)C1 (configuration not stated) | active: 22.4 µM | 
3 | Cc1ccc2oc(C(=O)N3CCC(O)(c4cccc(C(F)(F)F)c4)CC3)c(C)c2c1 | inconclusive [activator, single point] | 
4 | COc1ccc(NC(=O)CCC(=O)c2ccc(Cl)cc2)cn1 | inconclusive [activator, partial curve] | 
5 | COc1ccc(CN(CC(=O)NCc2ccco2)C(=O)CCC(=O)Nc2ccccn2)cc1 | inconclusive [activator, partial curve] | 
6 | CC1(C(=O)OCC(=O)Nc2nnc(-c3ccccc3)o2)CC1(Cl)Cl (configuration not stated) | inconclusive [activator, single point] | 
7 | CC(C)(C)c1ccc(Oc2ccc(NC(=O)CCC(=O)OCC(=O)c3ccccc3)cc2)cc1 | inconclusive [activator, partial curve, poor fit] | 
8 | CCc1cccc(NC(=S)Nc2cccc3ccccc23)c1 | inconclusive [activator, single point] | 
9 | CN(C)c1ccc(-c2nnc3n(Cc4ccccc4)c(=O)c4ccccc4n23)cc1 |  | inactive: 10%
10 | O=C(NCCS(=O)(=O)N1CCN(c2ccc(F)cc2)CC1)c1cccc(C(F)(F)F)c1 | inconclusive [activator, single point] | 
11 | CC(C)CCn1nnc2sc(-c3ccccc3)cc2c1=O |  | inactive: -3.58%
12 | COc1ccc(C(C)(O)c2nc(-c3cc(F)cc(F)c3)cs2)cc1 (configuration not stated) | inconclusive [activator, single point] | 
13 | Cc1cccc(N2CCN(C(=O)CN3C(=O)COc4ccc(S(=O)(=O)N5CCOCC5)cc43)CC2)c1C |  | inactive: -5.09%
14 | CCc1cc(=S)n2c([nH]c3ccccc32)c1C#N |  | inactive: -42.7%
15 | Cc1ccccc1CC(=O)OCC(=O)Nc1ccc(C)c(S(=O)(=O)N2CCCCC2)c1 | inconclusive [activator, partial curve, poor fit] | 
16 | C[C@H]1C(c2ccc(F)cc2)=NN(c2ccccc2)[C@@H]1CO | inconclusive [activator, partial curve] | 
17 | CSc1ccc(C(=S)N2CCCCCC2)cc1 | inconclusive [activator, single point] | 
18 | Cc1nc2ccc(NC(=O)Cc3ccsc3)cc2s1 | inconclusive [activator, partial curve, poor fit] | 
19 | CC(C)N(C(=O)CSc1nnc(Cc2csc(Nc3ccccc3)n2)o1)C(C)C | inconclusive [activator, partial curve, poor fit] | 
20 | COc1cc(-c2coc3c(C(=O)Nc4ccc(C(C)C)cc4)cccc23)ccc1O |  | inconclusive: -39.8% [activator]
21 | O=C(NC(=S)NC1CCCCC1)c1ccc(F)cc1 | inconclusive [activator, full curve] | 
22 | COc1ccc(NC(=O)C(OC)c2ccccc2)cc1Cl (configuration not stated) | inconclusive [activator, partial curve, poor fit] | 
23 | C/C(=N/NC(N)=S)c1cc2ccc(O)cc2oc1=O | active: 11.2 µM | 

Row | Structure (SMILES) | Potency | growth rescue
24 | Cc1ccc(C(C[N+](=O)[O-])c2c(-c3ccccc3O)[nH][nH]c2=O)cc1 (configuration not stated) | inconclusive [activator, partial curve, poor fit] | 
25 | Cc1ccccc1OCC(O)COc1ccccc1C | inconclusive [activator, partial curve, poor fit] | 
26 | Cc1cc(NC(=O)c2ccccc2-c2ccccc2)ccc1Br | active: 12.6 µM | 
27 | S=c1nc(SCc2ccccc2)[nH]c2ccccc12 | inconclusive [activator, partial curve] | 
28 | Fc1ccccc1NC(=S)NCCc1cccc(Cl)c1 | active: 22.4 µM | 
29 | Cc1oc(-c2ccccc2)cc1C(=O)Nc1cccc(C(=O)O)c1 | inconclusive [activator, single point] | 
30 | COc1ccccc1N1CCN(C(=O)c2oc3cc(C)cc(C)c3c2C)CC1 |  | inactive: -17.6%
31 | FC(F)(F)c1cc(CCN2C(=S)NC[C@@H]2Cc2ccccc2)cc(C(F)(F)F)c1 | inconclusive [activator, partial curve, poor fit] | 
32 | COc1cccc(C(=O)Nc2nnc(-c3cccs3)o2)c1 | inconclusive [activator, partial curve] | 
33 | COc1cnc(-c2ccccn2)nc1Sc1ccc(C)cc1 | inconclusive [activator, partial curve, poor fit] | 
34 | COc1ccc(C2c3c(n(C)c4ccccc34)C(=O)N2CC(=O)Nc2ccc(Cl)cc2)cc1 (configuration not stated) |  | inactive: -10.9%
35 | CCOC(=O)C(C)Sc1nc(-c2cccs2)ccc1C#N (configuration not stated) | inconclusive [activator, single point] | 
36 | CC1(C)c2[nH]c3ccccc3c2C[C@H]2C(=O)N(Cc3cccc(F)c3)C(=O)N21 | inconclusive [activator, partial curve, poor fit] | 
37 | COc1ccc(Cl)cc1NC(=O)CN(C)CC(=O)Nc1ccc(C)cc1Br |  | inactive: -16.1%
38 | O=C(NCc1ccccc1)C1CCC(=O)N(CC2CCCCC2)C1 (configuration not stated) | inconclusive [activator, single point] | 
39 | CCC1Oc2ccccc2N(CC(=O)Nc2ccccc2OC)C1=O (configuration not stated) | inconclusive [activator, single point] | 
40 | Cc1cc(C)c(C)c(S(=O)(=O)N2CCN(C(=S)NCC3CCCO3)CC2)c1C (configuration not stated) | inconclusive [activator, full curve] | 
41 | CC(C)c1ccc(OCc2cc(=O)n3c4c(sc3n2)CCCC4)cc1 |  | inactive: 0.512%
42 | CCCCNC(=S)NCc1ccc2[nH]c3c(c2c1)CCCC3 | inconclusive [activator, single point] | 
43 | O=C(NC(=S)NCCc1ccc(Cl)cc1)c1ccco1 | inconclusive [activator, partial curve, poor fit] | 
44 | O=C(Cn1cc(SCc2cccc(Cl)c2)c2ccccc21)N1CCOCC1 | inconclusive [activator, single point] | 
45 | Cc1cc(F)ccc1NC(=S)NCCc1ccccc1 | inconclusive [activator, partial curve, poor fit] | 
46 | O=C(Nc1ccc(Cl)cc1)P(=O)(O)c1ccccc1 |  | inactive: -8.04%

Row | Structure (SMILES) | Potency | growth rescue
47 | Cc1nc2c(ccc3nc(NC(=O)Cc4ccccc4)sc32)s1 | inconclusive [activator, partial curve, poor fit] | 
48 | Cc1nc2cc(N3CCCCC3)c(NC(=O)c3cccnc3)cc2c(=O)n1Cc1ccccc1 | inconclusive [activator, single point] | 
49 | CCCOC(=O)/C(=C\C=C\c1ccccc1)NC(=O)c1ccccc1 | inconclusive [activator, single point] | 
50 | O=C(N/N=C/c1cn(Cc2cccc(F)c2)c2ccccc12)c1cc(O)cc(O)c1 | inconclusive [activator, single point] | 
51 | Cc1ccc2c(c1)N(S(=O)(=O)c1ccc(CN3C(=O)c4cccnc4C3=O)cc1)CCO2 |  | inactive: -6.91%
52 | CCOc1ccc(NC(=S)NCc2ccc3c(c2)OCO3)cc1 | inconclusive [activator, partial curve, poor fit] | 
53 | O=C(N/C(=C/c1ccco1)C(=O)N1CCCCCC1)c1cccs1 | inconclusive [activator, partial curve] | 
54 | COc1ccccc1C(=O)NNC(=O)C(=O)NCc1ccccc1 | inconclusive [activator, single point] | 
55 | O=C(NCc1ccccc1F)c1ccc2c(c1)OCCO2 | inconclusive [activator, single point] | 
56 | C/C(=N\NC(=S)NC(C)C)c1ccc(Cl)c([N+](=O)[O-])c1 | inconclusive [activator, full curve] | 
57 | Cc1cc(C)n(-c2ccc(C(=O)OCc3nnc(-c4ccccc4)o3)cc2)n1 |  | inactive: 17.4%
58 | CN(c1ccc(C(=O)NCCc2ccccc2)cc1)S(C)(=O)=O |  | inactive: 3.76%
59 | CCOC(=O)C(NC(=O)NCc1ccc(F)cc1)(OCC)C(F)(F)F (configuration not stated) | inconclusive [activator, partial curve, poor fit] | 
60 | C=Cc1ccc(C2=CC(=O)C[C@H](c3ccc(OC)cc3)C2)cc1 |  | inactive: 1.94%
61 | O=C(CN1c2ccccc2Sc2ccccc21)N/N=C/c1ccc(Cl)cc1 | inconclusive [activator, full curve, poor fit] | 
62 | O=[N+]([O-])CC(c1ccc(F)cc1)c1c[nH]c2ccccc12 (configuration not stated) | inconclusive [activator, single point] | 
63 | Cc1ccc(C)c(NC(=S)NNC(=O)c2csc(C(C)C)c2)c1 | inconclusive [activator, full curve, poor fit] | 
64 | COc1ccc(C(=O)NC(=S)NNC(=O)Cc2cccs2)cc1 | active: 8.91 µM | 
65 | CCN1C(=O)[C@H]2[C@@H](c3ccc(-c4ccc(F)cc4)cc3)N3CCCC[C@@]3(C(=O)OC)[C@H]2C1=O | inconclusive [activator, single point] | 
66 | O=C(CN1CCC(C(=O)c2ccc3c(c2)OCCO3)CC1)NC1CCCC1 |  | inconclusive: -48% [activator]
67 | COc1ccc(N2CCC(CNC(=S)Nc3cc(C)ccc3C)C2)cc1 (configuration not stated) | inconclusive [activator, partial curve, poor fit] | 
